Source: patent US20220242948A1 (CARTEXELL, published 2022)

Columns and labels:
[1] = target: T1, human L1CAM (hL1CAM, R&D system, Cat No.777-NC) (human, UniProt P32004 20-1120); assay: soluble ELISA, plate coated with hL1CAM, purified scFv titrated, HRP-anti-StrepMAB (curve of FIG. 7B; R2 0.992)
T1 construct: Bought protein; also called antigen hL1CAM
Protocol: (§1) Specifically, the antigen mL1CAM protein or antigen hL1CAM protein was added to 96-well plates, incubated at 4° C. overnight, and then blocked with 2% MPBS at room temperature for 1 hour. Then, the purified anti-L1CAM scFv antibody protein was added. After incubation at room temperature for 90 minutes, HRP-anti-StrepMAB (IBA, Cat No. 2-1509-001) was diluted in 2% MPBS to 1:5000 and added. After incubation at room temperature for 1 hour, TMB substrate (Sigma, Cat No. T0440) and 2N H₂SO₄ (Merck, Cat No. 100731) were sequentially added, and the absorbance (OD) at 450 nm was measured. […] When the binding affinity of four types of cross-reactive clones was synthetically compared for each L1CAM, the binding affinity was high in the order of H8>E1>C9>E9.

[2] = target: T1, human L1CAM (hL1CAM, R&D system, Cat …); assay: soluble ELISA, plate coated with hL1CAM, purified scFv titrated, HRP-anti-StrepMAB (curve of FIG. 7B, which shows no plateau; R2 1.000)
Protocol: as §1

T1 sequence (P32004 20-1120 limits assumed): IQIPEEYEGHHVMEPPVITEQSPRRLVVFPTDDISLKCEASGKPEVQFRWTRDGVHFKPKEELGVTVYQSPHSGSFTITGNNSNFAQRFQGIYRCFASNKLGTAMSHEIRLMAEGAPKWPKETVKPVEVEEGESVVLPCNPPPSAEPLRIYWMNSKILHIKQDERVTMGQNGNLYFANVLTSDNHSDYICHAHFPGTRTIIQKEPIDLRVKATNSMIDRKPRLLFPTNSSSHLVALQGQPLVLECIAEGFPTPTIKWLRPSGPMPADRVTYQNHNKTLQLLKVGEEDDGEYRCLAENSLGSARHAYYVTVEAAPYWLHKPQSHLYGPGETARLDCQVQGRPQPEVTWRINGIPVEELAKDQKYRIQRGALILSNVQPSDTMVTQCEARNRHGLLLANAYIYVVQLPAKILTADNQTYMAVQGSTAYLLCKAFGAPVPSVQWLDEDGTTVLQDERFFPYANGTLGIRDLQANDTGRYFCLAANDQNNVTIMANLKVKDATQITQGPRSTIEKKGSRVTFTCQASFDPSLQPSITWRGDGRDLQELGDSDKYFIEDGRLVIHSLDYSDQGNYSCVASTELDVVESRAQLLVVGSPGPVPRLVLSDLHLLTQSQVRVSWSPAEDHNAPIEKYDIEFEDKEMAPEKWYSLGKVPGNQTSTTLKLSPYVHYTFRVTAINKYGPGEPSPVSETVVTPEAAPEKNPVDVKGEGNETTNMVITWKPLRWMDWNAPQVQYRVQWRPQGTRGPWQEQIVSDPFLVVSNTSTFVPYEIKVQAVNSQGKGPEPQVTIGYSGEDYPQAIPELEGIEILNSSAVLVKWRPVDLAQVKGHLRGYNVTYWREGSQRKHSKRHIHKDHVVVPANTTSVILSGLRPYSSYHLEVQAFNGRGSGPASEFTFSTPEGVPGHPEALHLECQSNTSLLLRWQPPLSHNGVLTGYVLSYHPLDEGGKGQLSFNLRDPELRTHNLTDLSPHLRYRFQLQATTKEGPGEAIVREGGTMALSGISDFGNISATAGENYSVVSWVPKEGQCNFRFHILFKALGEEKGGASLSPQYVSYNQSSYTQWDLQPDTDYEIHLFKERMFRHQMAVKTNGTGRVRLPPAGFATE

Row | Binder | EC50 [1] [µM] | EC50 [2] [µM]
1 | mL1CAM-3R-E1 purified soluble anti-L1CAM scFv antibody protein (scFv, Expressed in E. coli (pKFAB), purified on a strep tag II column; not shown: strep tag II from the pKFAB vector) scFv: [skipping about 100 residues]DESTGLGAFDYWGQGTLVTVSSGGGGSGGGGSGGGGSDIQMTQSPSSLSASVGDRVTITCRASQSISNYLNWYQQKPGKAPKLLIYAASNLQSGVPSRFSGSGSGTDFTLTISSLQPEDFATYYCQQSYSFPWTFGQGTKVEIK | 0.228 | –
2 | mL1CAM-3R-C9 purified soluble anti-L1CAM scFv antibody protein (scFv, Expressed in E. coli (pKFAB), purified on a strep tag II column; not shown: strep tag II from the pKFAB vector) scFv: [skipping about 100 residues]DEGSGLGAFDIWGQGTLVTVSSGGGGSGGGGSGGGGSDIQMTQSPSSLSASVGDRVTITCRASQSISRYLNWYQQKPGKAPKLLIYAASNLQSGVPSRFSGSGSGTDFTLTISSLQPEDFATYYCQQSYSFPWTFGQGTKVEIK | – | 6.06
